“And” between values parts separate entries of the source, which are not always exact repeats. Equal values may be shown once. About 1,200 (2.5%) of roughly 48,000 compounds were called active. Inconclusive results (about 2%) are left out.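 Rule for the calls: active = activation of at least 60% and not above a set upper limit (about 1 call in 100 departs from these limits); inconclusive = activation of 40% to 60%, or above that upper limit; inactive = activation under 40%.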 Some of the results follow.
Target: Probable G-protein coupled receptor 32 (Homo sapiens) (UniProt O75388)
Chain of UniProt O75388 (O75388 whole entry, looked up): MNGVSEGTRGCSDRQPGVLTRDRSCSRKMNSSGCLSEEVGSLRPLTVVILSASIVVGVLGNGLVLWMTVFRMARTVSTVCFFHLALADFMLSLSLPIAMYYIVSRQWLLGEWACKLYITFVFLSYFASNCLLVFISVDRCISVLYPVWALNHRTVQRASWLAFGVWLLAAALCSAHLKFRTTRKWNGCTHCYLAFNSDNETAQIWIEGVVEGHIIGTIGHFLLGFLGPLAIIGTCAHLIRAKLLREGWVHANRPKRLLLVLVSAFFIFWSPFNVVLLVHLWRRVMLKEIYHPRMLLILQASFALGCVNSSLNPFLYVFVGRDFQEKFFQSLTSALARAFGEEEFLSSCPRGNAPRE
Assay: qHTS for Agonists of Human Resolvin D1 Receptor DRV1; note: 0% is about no effect
Settings: CHO-K1 GPR32 beta-arrestin PathHunter luminescence, 90 min; at 76.9 µM; hits give high values; zero percent set by DMSO-only wells
In short: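 GPR32 activation in stably transfected CHO-K1 cells, detected as beta-arrestin recruitment by enzyme-fragment complementation. Compound exposure: 90 min, 37 °C.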

activation, inactive:
Cc1cccc(NC(=O)C(c2ccccc2)N2Cc3ccccc3C2=O)c1C (stereo not drawn) -13.2%
Cc1cccc(NC(=O)CSc2nnc(-c3cccs3)o2)c1 -11.7%
COc1ccccc1N1CCN(C(=O)CCn2cnc3onc(-c4ccc(F)cc4)c3c2=O)CC1 0.958%
COc1cccc2cc(-c3nnc(Nc4ccccc4C)s3)c(=O)oc12 -5.52%
COC(=O)c1sccc1S(=O)(=O)N(CC(=O)Nc1ccc(C)cc1)c1ccccc1 -9.92%
Cc1cc(C)cc(N2C(=O)CS(=O)(=O)C23C(=O)N(Cc2ccc(F)cc2)c2ccc(C)cc23)c1 (stereo not drawn) -9.68%
COc1ccc(NC(=O)Cn2c(=O)nc(-c3ccccc3)c3ccccc32)cc1OC -7.6%
Cc1cc(F)ccc1NC(=O)C1CCCN(c2nnc(-n3c(C)ccc3C)s2)C1 (stereo not drawn) 6.98%
CCOc1ccc(-c2cc3nc(C4CCN(C(=O)OC(C)(C)C)CC4)c(C(=O)Nc4ccc(C(=O)OC)cc4)cn3n2)cc1 -5.07%
Cc1ccc(CCNC(=O)NCc2noc3ccc(C)cc23)cc1 -2.56%
Cn1ncc(C(=O)N2CCN(c3ccccc3)CC2)c1C1CCN(C(=O)OC(C)(C)C)CC1 -8.51%
O=C(O)CCCc1ccccc1 6.7%
Cc1cc(C)n2nc(CNC(=O)c3cccc(Cl)c3)nc2n1 -7.99%
CSc1ccc(CCNC(=O)C(C)n2nc(C)c3c(C)n(-c4ccccc4)nc3c2=O)cc1 (stereo not drawn) -15.6%
Cc1ccc(CCNC(=O)Cn2nc(C)c3c(C)n(-c4ccc(C)cc4)nc3c2=O)cc1 -14.1%
Cc1ccc(NC(=O)COc2ccc3oc4c(c3c2)CCCC4)c(C)c1 23.5%
Cc1cc(=O)[nH]c2nnc(SCC(=O)Nc3cc(C(F)(F)F)ccc3Cl)n12 37.9%
COC(=O)c1ccc(Cn2c(=O)cc(C)c3c(C)nn(C)c32)cc1 32.4%
Cc1ccc2c(=O)cc(C(=O)Nc3sc4c(c3C(=O)NCc3ccco3)CCCC4)oc2c1C -15%
CCc1ccc(CNC(=O)c2nn(-c3ccc(C)c(C)c3)nc2CO)cc1 36.6%
CCC(C)NC(=O)Cn1ncc2c(C)n(Cc3ccc(F)cc3)c(C)c2c1=O (stereo not drawn) 1.21%
CC(=O)CSc1nc(-c2ccccc2)[nH]c1S(=O)(=O)c1ccc(C)cc1 1.92%
CCOc1ccc(Sc2cc(C(=O)NCc3ccc(F)cc3)c3ccccc3n2)cc1 22.4%
CN(C)c1ccc(C(CNC(=O)COc2ccccc2)N2CCOCC2)cc1 (stereo not drawn) -9.29%
CCOc1ccc(NC(=O)Nc2c(C)n(C)n(-c3ccccc3)c2=O)cc1 -1.69%
CCN(CC)S(=O)(=O)c1ccc2c(c1)N(CC(=O)NCc1ccccc1)C(=O)CS2 -11.4%
Cn1ncc2c(NCc3cccc(Cl)c3)ncnc21 8.4%
COc1cc(Cl)c(C)cc1NC(=O)CSc1cc(=O)n(C)c2cc(Cl)ccc12 -8.6%
Cc1cnc(NC(=O)C2=C(O)c3ccccc3S(=O)(=O)N2C)s1 -20.3% and -10.5%
O=C(CN1C(=O)CCSc2ccc(S(=O)(=O)N3CCCC3)cc21)Nc1cccc(Cl)c1 -21.3%
Cc1c(Cl)cccc1NC(=O)N1CCN(Cc2cc(=O)n3nc(-c4ccccc4F)sc3n2)CC1 0.923%
Cc1nn(C)c2c1c(-c1ccccc1)cc(=O)n2Cc1ccccc1F -0.275%
CCCS(=O)(=O)N1CCC(N2CCN(Cc3ccc(C)cc3)C(=O)C2=O)CC1 -5.27%
Cc1ccc(-c2noc(CCC(=O)Nc3ccc(F)cc3Cl)n2)cc1 -1.35%
COc1ccc(NC(=O)c2cccc(N3CCCS3(=O)=O)c2)cc1 43.2%
NC(=O)CSc1ncc2c(n1)-c1ccccc1N(Cc1ccccc1)S2(=O)=O -3.58%
Cc1cc(C)c2c(=O)cc(C(=O)NCCc3ccc(S(N)(=O)=O)cc3)oc2c1 11.1%
COc1ccc(NS(=O)(=O)c2ccc3c(c2)CCN3C(=O)C2CC2)cc1OC 20.9%
Cc1ccccc1CNC(=O)C(=O)NCC(c1ccco1)S(=O)(=O)c1ccc(F)cc1 (stereo not drawn) -8.45%
COc1cccc(CNC(=O)Cn2c(=O)c3cccn3c3ccc(F)cc32)c1OC -12.8%
CCN1CCOC(=O)C1CC(=O)Nc1ccccc1C(F)(F)F (stereo not drawn) 29.1%
Cc1cccc(NC(=O)C2CCC(CNS(=O)(=O)c3ccc4c(c3)CCCC(=O)N4)CC2)c1C (stereo not drawn) -11%
CCCN(C(=O)C1CCN(S(=O)(=O)c2c(C)noc2/C=C/c2ccc(C)cc2)CC1)c1ccccc1F -18.3%
CCOCCCNC(=O)c1c(NC(=O)Cc2coc3c(C)c(C)ccc23)sc2c1CCC2 -16.7%
Cc1cc(C)cc(N(C)S(=O)(=O)c2nnc(NC(=O)COc3ccc(C)c(C)c3)s2)c1 12.1%
CC(=O)c1ccc(NC(=O)c2cccc(NC(=O)N3CCSc4ncccc43)c2)cc1 -0.577%
COc1cc(OC)c(NC(=O)COc2ccccc2-c2nnc(-c3ccccc3)o2)cc1Cl 21.4%
CCCN(Cc1cc2cc(C)ccc2[nH]c1=O)C(=O)c1cccc(Cl)c1 -12.5%
COC(=O)c1cc(C)nc2c1c(=O)nc(SCc1cc(C)ccc1C)n2C1CC1 2.49%
CCCCCCCCCCCCCCCCCCO -12.7%
Cc1cccc(C(=O)NC2(C(F)(F)F)N=C(c3ccccc3)N(Cc3ccccc3)C2=O)c1 (stereo not drawn) -9.42%
Cc1c(Cl)cccc1NC(=O)CN1C(=O)c2ccccc2Sc2ncccc21 2.32%
CCc1ccccc1Nc1nn2c(=O)c3ccc(C(=O)NCCc4ccccc4)cc3nc2s1 25.1%
O=C(CSc1nc2ccccc2n1CC(=O)Nc1ccc(F)cc1F)Nc1ccc(F)cc1 -3.9%
CC(=O)N1CCc2c(sc3c2c(=O)n(-c2ccccc2Cl)c(=O)n3C)C1 -18.3%
Cc1ccc(-c2c(CN3CCN(c4cc(Cl)ccc4C)CC3)csc2C)cc1 -21.8%
COCCCN1CCc2nc(SCC(=O)Nc3ccc(C)c(Cl)c3)[nH]c(=O)c2C1 -5.78%
CCn1c(=O)c2cc(C(=O)NCCc3cccc(C)c3)sc2c2ccccc21 -1.3%
CCOc1ccc2c(c1)c(=O)c(S(=O)(=O)c1ccc(C)cc1)cn2CC(=O)Nc1ccc(C)cc1 -5.67%
COc1ccc(-n2c(SCc3nc(-c4ccc(C)cc4)no3)nnc2-c2ccncc2)cc1 0.748%
Cc1ccc(Nc2cc(C(=O)NC3CCCC3)c3ccccc3n2)cc1C 45.7%
Nc1ncc(S(=O)(=O)NCc2ccccc2F)cn1 -0.573%
COc1ccccc1N1CCN(C(=O)C2CCN(S(=O)(=O)c3cccc4nonc34)CC2)CC1 -21.5%
CC(C)COc1ccc(C(=O)NCC2OCCc3ccccc32)cc1 (stereo not drawn) 40.5%
CCOC(=O)c1c(C)n(-c2ccccc2)c2ccc(OC(=O)c3ccccc3Cl)cc12 -7.98%
CCOc1ccc(CCNC(=O)C2CCCN(c3nnc(C)c4c(C)n(-c5ccccc5)nc34)C2)cc1 (stereo not drawn) -0.259%
NC(=O)c1c(NC(=O)c2noc3c2CCCC3)sc2c1CCCC2 4.02%
CCOc1cc2[nH]c(=O)n(CCC(=O)N3CCN(c4cccc(Cl)c4)CC3)c(=O)c2cc1OCC -1.92%
COC(=O)c1cc(NC(=O)CCS(=O)(=O)c2cc(Br)cc3c2N(C(=O)C2CC2)CC3)cc(C(=O)OC)c1 -4.37%
COc1ccc2oc(=O)c(C(=O)NCCc3c(C)[nH]c4c(C)cccc34)cc2c1 -13.1%
Cc1ccccc1C(=O)Nc1ccc(NC(=O)c2cccs2)cc1 1.94%
CCn1c2ccccc2c2cc(NC(=O)COc3cc(C)c(Cl)c(C)c3)ccc21 -24%
CCOC(=O)Cn1nc(C)c(NC(=O)COc2ccc(OC)cc2)c1C -1.2%
COc1ccc(C(=O)NCC(c2ccco2)S(=O)(=O)c2ccccc2)cc1 (stereo not drawn) -6.82%
CCOC(=O)c1c(C)oc2nc(C)nc(N3CCN(c4ccc(C)cc4C)CC3)c12 -1.72%
CC1(C)O[C@@H]2C[C@H]3[C@@H]4CCC5=CC(=O)C=C[C@]5(C)[C@@]4(F)[C@@H](O)C[C@]3(C)[C@]2(C(=O)CO)O1 -27.8%
CC(=O)N1CCCc2cc(S(=O)(=O)N3CCC(C(=O)NCc4ccc(F)cc4)CC3)ccc21 8.39%
Cc1ccc(-c2nnc(Nc3ccc(OCC(N)=O)cc3)c3ccccc23)cc1S(=O)(=O)NCC1CCCO1 (stereo not drawn) -14.9%
O=C(CSc1n[nH]c(-c2ccccc2)n1)N1CCN(c2ccc(F)cc2)CC1 -0.981%

activation, active:
Cc1cccc(CNC(=O)c2ccc(-c3nc(CS(=O)(=O)c4ccccc4)c(C)o3)cc2)c1 79.5%
CN(C)c1ccc(-c2nc(-c3ccccn3)no2)cc1[N+](=O)[O-] 75.8%
Cc1ccc2c(CNCc3cccs3)c(C(=O)O)n(Cc3ccc(F)cc3)c2c1 91.9%
Cc1nc(-c2ccc(F)cc2)sc1CCNC(=O)c1ccccc1 62.2%

From PubChem BioAssay AID1346428 (National Center for Advancing Translational Sciences (NCATS), 2018)
